In all, about 360,000 compounds went through this assay and about 270 (0.075%) were called active. The shares of active, inactive and inconclusive entries below differ from those in the screen. Calls come from the whole dose curve; as a rule, active = well fitted activation curve with a large enough effect; inconclusive = small, poorly fitted or top-dose-only effect; inactive = no such curve, though single readings can be large or run the other way. Where the call is inconclusive, the potency comes from a doubtful curve fit.
biological target: Rap guanine nucleotide exchange factor 3 (Homo sapiens) (UniProt O95398); test: qHTS for Agonist of cAMP-regulated guanine nucleotide exchange factor 3 (EPAC1): primary screen; settings: biochemical assay; activation: at 154 µM (top of the series), 100% = response to 6.5 mM cAMP; note: nearly all actives have a fitted effect of over 60% in size
Description: In multi-cellular eukaryotic organisms, the effects of cAMP are transduced by two ubiquitously-expressed intracellular cAMP receptors, the classic protein kinase A/cAMP-dependent protein kinase (PKA/cAPK) and the more recently discovered exchange protein directly activated by cAMP/cAMP-regulated guanine nucleotide exchange factor (EPAC/cAMP-GEF). Both PKA and EPAC are ubiquitously expressed in all tissues, and an increase in intracellular cAMP levels will lead to the activation of both PKA and EPAC. Therefore, careful dissections of the individual role and relative contribution of EPAC and PKA within the overall cAMP signaling in various model systems are critical for further elucidating the mechanism of cAMP signaling. To date no EPAC-specific antagonists and agonist, as well as isoform-specific agonists have been reported, and developing EPAC-specific pharmacological probes to determine the physiological functions that EPAC play in the overall cAMP-mediated signaling remains a major challenge within the research field. Furthermore, identified regulators of EPAC may lead to new mechanism-based therapeutic strategies specifically targeting the EPAC / cAMP-signaling components as EPAC has been implicated to play important roles in major human pathological conditions such as diabetes, heart disease, and cancer.
This qHTS will be used to screen the Molecular Libraries Small Molecule Repository (MLSMR) as a concentration-titration series using the NCGC unique quantitative screening (qHTS) platform to find activators for EPAC1. In addition, this assay will also be used as a counterscreen for the EPAC2 qHTS. This fluorescent based assay is developed and validated for EPAC1 that measures exchange using EPAC effector Rap1 complex with BODIPY-GDP, a GDP analog with a tethered fluorophores. Activators are identified by monitoring the change in fluorescence signal as the exchanged free BODIPY-GDP has a reduced fluorescence compared to Rap1-bound BODIPY-GDP. Increase in signal (activation) is the desired outcome for the EPAC1 agonist while no activity in this assay is desired for the EPAC2 agonist counterscreen.
[1] de Rooij, J., Zwartkruis, F. J., Verheijen, M. H., Cool, R. H., Nijman, S. M., Wittinghofer, A., and Bos, J.L. (1998) Nature 396, 474-477
NIH Chemical Genomics Center [NCGC]
NIH Molecular Libraries Probe Centers Network [MLPCN]
Assay Submitter (PI): Xiaodong Cheng, The University of Texas Medical Branch
Briefly, three uL of reagents (100 nM EPAC1, 250 nM RAP1B-BODIPY-GDP, 50 uM GDP) were dispensed into a 1536-well Greiner black solid-bottom medium binding assay plate. Controls and test compounds (23 nL) were transferred to the plate via a Kalypsys pin tool equipped with a 1536-pin array. The plates were centrifuged at 1,000 rpm for 15 seconds followed by 5 minute incubation at room temperature. The assay plates were read at 5 minute intervals for 30 minutes in the ViewLux plate reader using 480nm excitation and 540nm emission filters. The results were normalized to the agonist positive control of 6.5 mM cAMP.
Potency is the fitted concentration of half-maximal effect; tags give direction and shape of the fitted curve.

Chain of UniProt O95398 (O95398 whole entry, looked up): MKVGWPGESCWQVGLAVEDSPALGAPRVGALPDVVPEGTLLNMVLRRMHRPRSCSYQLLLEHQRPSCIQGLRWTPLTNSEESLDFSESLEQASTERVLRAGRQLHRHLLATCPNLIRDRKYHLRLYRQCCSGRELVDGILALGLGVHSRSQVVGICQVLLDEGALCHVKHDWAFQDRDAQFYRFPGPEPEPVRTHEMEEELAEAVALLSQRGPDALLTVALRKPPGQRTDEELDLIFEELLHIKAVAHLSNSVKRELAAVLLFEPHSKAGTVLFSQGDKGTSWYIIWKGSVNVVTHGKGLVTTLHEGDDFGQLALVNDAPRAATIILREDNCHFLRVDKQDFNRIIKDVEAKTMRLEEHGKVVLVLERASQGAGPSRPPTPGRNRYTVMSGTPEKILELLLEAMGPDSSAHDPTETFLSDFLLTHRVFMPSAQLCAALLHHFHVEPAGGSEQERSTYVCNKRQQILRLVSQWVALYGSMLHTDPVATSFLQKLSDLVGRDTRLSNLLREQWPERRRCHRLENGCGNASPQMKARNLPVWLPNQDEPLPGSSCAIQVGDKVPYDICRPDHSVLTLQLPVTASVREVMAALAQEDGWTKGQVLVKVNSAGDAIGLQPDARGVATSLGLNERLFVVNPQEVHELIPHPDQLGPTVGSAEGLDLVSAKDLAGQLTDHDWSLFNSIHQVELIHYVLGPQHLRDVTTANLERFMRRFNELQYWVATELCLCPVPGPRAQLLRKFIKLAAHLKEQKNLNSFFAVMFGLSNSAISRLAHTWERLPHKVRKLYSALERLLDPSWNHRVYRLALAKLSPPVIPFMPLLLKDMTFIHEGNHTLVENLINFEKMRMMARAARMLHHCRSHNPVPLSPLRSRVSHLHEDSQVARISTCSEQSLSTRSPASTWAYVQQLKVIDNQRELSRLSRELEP

Potency, inactive:
COc1ccc(NC(=O)c2cccs2)c([N+](=O)[O-])c1
Cc1cccc(N2C(=O)C=CC2=O)c1
COc1ccc(C(=O)N2CCCC(N3CCN(c4ccccc4F)CC3)C2)c(OC)n1 (stereo not given)
O=C(NCc1ccccc1)C(c1ccccc1F)n1c(=O)c(-c2cc3ccccc3[nH]2)nc2ccccc21 (stereo not given)
COc1cc(/C=C2\SC(=O)N(c3ccccc3Cl)C2=O)cc([N+](=O)[O-])c1O
Oc1cccc(/C=N/N(Cc2ccccc2)c2ccccc2)c1
c1ccc2c(c1)Nc1cc3ccccc3cc1S2
CN1CC=C2C(C#N)=C(N)C(C#N)(C#N)[C@H](c3cccs3)[C@H]2C1
C[C@H](CO)N1C[C@H](C)[C@@H](CN(C)C(=O)NC2CCCCC2)Oc2c(cccc2N(C)C)C1=O
O=C(O)CCCN1C(=O)C2C3CC(C2C1=O)C1C(c2ccccc2)c2sc(=O)[nH]c2SC31 (stereo not given)
CCC1CCCCN1CCCNC(=O)Cn1c(=O)c2cccn2c2cccnc21 (stereo not given)
COCCN(C(=O)CCC(=O)Nc1ccccn1)C(C(=O)NC(C)C)c1ccc(Cl)cc1 (stereo not given)
Cc1ccc(CN2Cc3cccc4c3[C@@H](CC2=O)[C@H](O)[C@H](O)C4)cc1
COC(=O)C1=CN(c2ccc(C(C)(C)C)cc2)C(N)=C(C#N)C1c1ccccc1F (stereo not given)

Potency, active:
CC1CC1c1ccc(/C=C(\C#N)C(=O)Nc2ccccc2Cl)o1 (stereo not given) 100 µM
CCNc1ccc2noc3c2c1C(=O)c1ccccc1-3 112 µM
Cc1ccc(O)c(C(=O)c2cc(C#N)c(=O)n(-c3nccs3)c2)c1 39.8 µM
C=CCN1C(=O)/C(=C/C=C2/N(CC)c3ccc(S(=O)(=O)N(C)C)cc3N2CC)SC1=S 100 µM
CCCCCCOC(=O)C(C#N)c1nc2ccccc2nc1N1CCCCC1 (stereo not given) 112 µM
Cn1c(SCC(=O)Nc2cccc(C(=O)O)c2)nnc1-c1cc2cc(Br)ccc2o1 63.1 µM

Potency, inconclusive:
CN1CC=C2C(C#N)=C(N)C(C#N)(C#N)C(CCc3ccccc3)C2C1 (stereo not given) 63.1 µM [activator, partial curve, poor fit]
CCn1c2ccccc2c2cc(NC(=O)COC(=O)c3ccc(O)cc3)ccc21 35.5 µM [activator, full curve]
O=[N+]([O-])c1ccc(S(=O)(=O)Nc2ccc(-c3ccccc3)cc2)cc1 25.1 µM [activator, partial curve]
O=C(c1ccccc1[N+](=O)[O-])N1CCN(c2ccc(N3CCOCC3)nn2)CC1 44.7 µM [activator, single point]
CC1(C(=O)OCC(=O)NNC(=O)COc2ccc(Cl)cc2)CC1(Cl)Cl (stereo not given) 31.6 µM [activator, single point]
O=C(O)CCn1cc(C2CC(c3ccccc3)=NN2c2ccccc2)c(-c2ccccc2)n1 (stereo not given) 112 µM [activator, single point]
COC(=O)c1cccc(NC(=O)c2cc3sccc3n2C)c1 100 µM [activator, partial curve]
CCOc1ccc(C(=O)NCC(=O)NCC(c2ccco2)N2CCCCC2)cc1OCC (stereo not given) 56.2 µM [activator, partial curve]
CCN(CC)CCn1c2c(c(SCC(=O)NCc3ccccc3)nc1=O)CCCC2 56.2 µM [activator, single point]
O=S(=O)(NCC1(N2CCOCC2)CCCCC1)c1ccc(Cl)cc1C(F)(F)F 44.7 µM [activator, single point]
CN1CCN(S(=O)(=O)c2ccc(Nc3ccc(F)cc3)nc2)CC1 31.6 µM [activator, single point]
CCN(CC)c1ccc(/C=C(/C#N)c2nc3ccc(C)cc3[nH]2)c(OC(C)C)c1 112 µM [activator, single point]
CCCCOc1cccc(-c2cc(C(=O)NNC(=S)NCC)c3ccccc3n2)c1 89.1 µM [activator, partial curve]
CC1CCCCC1NC(=O)CNC(=O)c1cccs1 (stereo not given) 7.94 µM [activator, full curve, poor fit]
O=C(CCNC(=O)c1ccc(Br)cc1)NCCCc1ccccc1 22.4 µM [activator, full curve, poor fit]
CCN(CC(=O)Nc1ccccc1C(=O)NC1CC1)Cc1cccs1 50.1 µM [activator, single point]
CCN(CC)c1ccc(C=C2SC(=S)NC2=O)cc1 35.5 µM [activator, partial curve]
Cc1c(CCC(=O)O)c(=O)oc2c(C)c3occ(-c4ccc(Br)cc4)c3cc12 89.1 µM [activator, partial curve]
Cc1n[nH]c(C)c1N1C(=O)c2cccc3c(N4CCCCCC4)ccc(c23)C1=O 126 µM [activator, single point]
Cc1ccccc1SCC(=O)Nc1cc(C(F)(F)F)ccc1N1CCOCC1 22.4 µM [activator, full curve]
CCN(c1ccccc1)S(=O)(=O)c1ccc(C(=O)Nc2ccncc2)cc1 126 µM [activator, single point]
Brc1ccccc1-c1nnc(SCc2nc3ccccc3s2)o1 112 µM [activator, partial curve]
CCCCn1c(N)c(N(CCOC)C(=O)c2ccc(C)c(S(=O)(=O)N3CCCCC3)c2)c(=O)[nH]c1=O 31.6 µM [activator, single point]

activation, inconclusive:
Cc1cc(SCC(=O)N(C)CC(=O)Nc2ccc(F)cc2)nc2ccccc12 19.2% [activator]
O=C(Nc1ccc(S(=O)(=O)N2CCCC2)cc1)c1cc(F)c(F)cc1Cl 16.4% [activator]

Source: PubChem BioAssay AID720707 (National Center for Advancing Translational Sciences (NCATS), 2013)
